# According to PubChem BioAssay (NCATS):
# “And” between values parts separate entries of the source, which are not always exact repeats. Equal entries are not always repeated. The list shows a part of the results. These are further read-outs of the screen, such as a control signal, another cell line or another target. No call is given for them. Most of these compounds were active or inconclusive in the main read-out, so they are no random draw. For part of these data: Words in brackets tell the shape of the fitted curve; partial curves, single points and poor fits give uncertain potencies.
# How the values were obtained:
# [1] = qHTS Assay for Lipid Storage Modulators (AID 1519); settings: Drosophila S3 cells, BODIPY lipid droplet/cell ratio, laser cytometry, cells loaded with oleic acid
# Outline: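 Cells seeded at 5,000 per well were treated with compounds over a concentration series and loaded with oleic acid (400 uM, as added). Lipid droplet fluorescence (488 nm excitation, 500-530 nm channel) was read by laser-scanning cytometry and normalized to 20 uM Triacsin C.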
# [2] = S16 Schwann cell PMP22 intronic element beta-lactamase assay (AID 624044); settings: S16 rat Schwann cells, PMP22 element beta-lactamase FRET, 24 h; further: nearly all actives have a fitted effect of over 15% in size
# Outline: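 Beta-lactamase reporter under a PMP22 intronic regulatory element in stable S16 rat Schwann cells; 24 h compound exposure. 460 nm blue signal normalized between DMSO (0%) and potassium clavulanate, with 535 nm FRET tracking viability; curves classed by r2 and response.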
# [3] = qHTS assay for small molecule agonists of retinoid X receptor alpha signaling (AID 588544); settings: HEK293T RXRa-UAS-bla, beta-lactamase reporter, 18 h; 530 nm emission
# [4] = qHTS assay for small molecule antagonists of retinoid X receptor alpha signaling (AID 588546); settings: HEK293T RXRa-UAS-bla, beta-lactamase ratio, antagonist mode; measured here: W530 green channel, cytotoxicity proxy;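 further: cells stimulated with 9-cis-retinoic acid as agonist; on the % scale 0 is the no-effect control and ±100 the full control effect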
# Outline: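 Beta-lactamase reporter inhibition, read as CCF4 fluorescence ratio (ex 405, em 460/530 nm) after 2 h at RT. HEK293T UAS-bla cells, 2500/well, were stimulated with 9-cis-RA at 500 or 100 nM final alongside test compound for 18 h at 37 C.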
# [5] = qHTS Assay for Inhibitors of PDE-IV (AID 607); settings: HEK293 ACTOne CNG channel cells, membrane potential fluorescence; measured here: parental cell counter-screen;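 further: parental cells stimulated with forskolin 10 µM plus RO 20-1724 100 µM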
# Outline: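 HEK293 ACTOne cells with CNG channel (1000/well), endogenous PDE4; membrane potential dye, compounds up to 22.9 uM final. Fluorescence Ex 535/Em 590; RO 20-1724 (100 uM final) as reference.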
# [6] = A High-Content qHTS Against Drug Library for the Identification of Small Molecules that Inhibit DYT1 Early Onset Primary Dystonia-Associated Cell Pathology (AID 1645839); settings: HEK293 Flp-In EGFP-delE TorsinA, punctate imaging, 48 h; measured here: cell count cytotoxicity
# Outline: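 Induced EGFP-delE TorsinA cells are imaged after 48 h of compound treatment. Punctate fusion-protein distribution gives the %pathology value, while nuclei counts flag toxicity. Wild-type EGFP-hTOR1A cells define the normal pattern.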
# [7] = qHTS assay for small molecule antagonists of glucocorticoid receptor signaling (AID 588533); settings: HeLa MMTV-bla, GRE beta-lactamase ratio, antagonist mode, 18 h; measured here: W530 channel AC50;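 further: cells stimulated with 2 nM dexamethasone as agonist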
# [8] = qHTS assay for small molecule antagonists of peroxisome proliferator-activated receptor delta signaling (AID 588535); settings: HEK293T PPARd-UAS-bla, beta-lactamase FRET ratio, 18 h; 460 nm channel;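 further: cells co-treated with a PPAR-delta agonist as stimulator during compound exposure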
# Outline: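 Inhibition of PPAR-delta response element-driven beta-lactamase expression is measured in HEK293T cells exposed to a compound titration series for 18 hrs at 37 C. Half-maximal inhibition comes from Hill equation fitting.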
# [9] = qHTS Assay for Modulators of Human Peripheral Myelin Protein 22 (PMP22) Expression/Activity (AID 1967); settings: Cell-based PMP22 reporter, dual-color luciferase ratio; measured here: red reporter channel AC50; EF-alpha promoter control reporter in MSC80 mouse Schwann cells
# Outline: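 Luminescence ratio of Pmp22 promoter-driven green luciferase to EF-alpha-driven red luciferase, in engineered mouse MSC80 Schwann cells, served as read-out. Compounds were incubated 24h; untreated cells defined 0% Activity; curves were classified by r2, magnitude and activity.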
# [10] = Nrf2 qHTS screen for inhibitors: Validation (AID 493153); settings: A549 ARE-Fluc reporter, 18-24 h; AC50: CellTiter-Fluor fluorescence read, measured here: cytotoxicity CellTiter-Fluor AC50; viability change: measured here: cytotoxicity max response
# Outline: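 A549 ARE_Fluc, 5% FBS OPTI-MEM; cpd titration, 18-24 h, 37°C/5% CO2. Read 1: CellTiter-Fluor (Ex 405/Em 525), cytotox. Read 2: luciferase lum, Nrf2 activity.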
# [11] = target: Catechol O-methyltransferase (Homo sapiens) (UniProt P21964); assay: Confirmatory Screen for Target Class Profiling of Small Molecule Inhibitors of Methyltransferases (AID 1745852); settings: MTase-Glo luminescence, SAH detection, recombinant enzyme; measured here: COMT inhibition potency;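 further: inhibitor potency for blocking SAH production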
# Sequence of UniProt P21964 (P21964 whole entry, looked up): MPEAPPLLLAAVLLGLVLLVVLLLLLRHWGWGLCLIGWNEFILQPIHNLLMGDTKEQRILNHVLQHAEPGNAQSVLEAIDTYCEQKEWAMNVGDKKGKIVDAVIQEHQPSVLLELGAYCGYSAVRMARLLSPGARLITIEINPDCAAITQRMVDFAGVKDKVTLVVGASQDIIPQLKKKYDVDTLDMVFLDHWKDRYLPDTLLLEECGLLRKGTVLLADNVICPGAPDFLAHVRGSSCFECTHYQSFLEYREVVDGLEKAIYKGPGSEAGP
# [12] = target: Histamine N-methyltransferase (Homo sapiens) (UniProt P50135); assay: as above; settings: MTase-Glo luminescence, SAH detection, recombinant enzyme; measured here: HNMT inhibition potency
# Sequence of UniProt P50135 (P50135 whole entry, looked up): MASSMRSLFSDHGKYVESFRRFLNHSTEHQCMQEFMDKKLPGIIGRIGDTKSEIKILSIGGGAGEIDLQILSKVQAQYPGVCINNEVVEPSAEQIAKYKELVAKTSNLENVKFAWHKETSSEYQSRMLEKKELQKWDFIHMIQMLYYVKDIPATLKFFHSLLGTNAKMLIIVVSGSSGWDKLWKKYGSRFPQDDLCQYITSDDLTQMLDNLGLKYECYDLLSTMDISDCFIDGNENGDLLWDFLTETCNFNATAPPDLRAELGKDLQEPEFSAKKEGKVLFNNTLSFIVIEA
# [13] = target: Nicotinamide N-methyltransferase (Homo sapiens) (UniProt P40261); assay: as above; settings: MTase-Glo luminescence, SAH detection, recombinant enzyme; measured here: NNMT inhibition potency
# Sequence of UniProt P40261 (P40261 whole entry, looked up): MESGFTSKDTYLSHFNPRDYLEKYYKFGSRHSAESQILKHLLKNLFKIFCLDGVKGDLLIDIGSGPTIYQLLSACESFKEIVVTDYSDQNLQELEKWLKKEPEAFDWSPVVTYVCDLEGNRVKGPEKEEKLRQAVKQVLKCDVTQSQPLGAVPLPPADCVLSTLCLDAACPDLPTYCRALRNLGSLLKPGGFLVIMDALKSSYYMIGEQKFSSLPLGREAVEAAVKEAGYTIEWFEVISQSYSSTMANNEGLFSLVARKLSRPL
# [14] = target: Phenylethanolamine N-methyltransferase (Homo sapiens) (UniProt P11086); assay: as above; settings: MTase-Glo luminescence, SAH detection, recombinant enzyme; measured here: PNMT inhibition potency
# Sequence of UniProt P11086 (P11086 whole entry, looked up): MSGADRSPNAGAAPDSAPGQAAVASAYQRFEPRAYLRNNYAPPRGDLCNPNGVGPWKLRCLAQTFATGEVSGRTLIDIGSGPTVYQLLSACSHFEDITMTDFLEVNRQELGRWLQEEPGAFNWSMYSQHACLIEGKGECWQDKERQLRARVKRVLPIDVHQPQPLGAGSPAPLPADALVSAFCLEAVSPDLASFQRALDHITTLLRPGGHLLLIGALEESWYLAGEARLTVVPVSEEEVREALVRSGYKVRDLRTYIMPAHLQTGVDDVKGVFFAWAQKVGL
# [15] = qHTS for identification of novel therapeutic agents for treatment of microphthalmiaassociated transcription factor (MiT) renal cell carcinoma (RCC) (AID 1963991); settings: CellTiter-Glo, 48 h, stronger effect = lower value
# Outline: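 Three TFE3-fusion RCC lines (UOK109, UOK124, UOK145), 500 cells/well in complete medium, were treated with MIPE 4.0 compounds for 48 hours at 37 C. Viability was by CellTiter-Glo luminescence, normalized to DMSO (100%) and empty wells (0%); curves fitted over 11 concentrations.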
# [16] = qHTS Validation Assay to Find Inhibitors of Chronic Active B-Cell Receptor Signaling (AID 485345); settings: ABC-DLBCL cells, chronic BCR signaling reporter; measured here: CBG/CBR ratio read-out
# Outline: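 TMD8 ABC-DLBCL cells with dox-inducible green luciferase–IκBα fusion and red native luciferase; compounds 46 uM–3 nM, 4 h at 37C with doxycycline in 0.5% FBS IMDM. Green/red ratio normalized to basal and 10 uM MG-132.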
# [17] = qHTS assay for small molecule antagonists of androgen receptor signaling (AID 588516); settings: AR-UAS-bla HEK293, beta-lactamase ratio, antagonist mode, 16 h; measured here: W460 blue channel fit
# Outline: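 Antagonist-mode qHTS: inhibition of R1881 (10 nM)-driven beta-lactamase expression in GripTite HEK 293 cells is measured after 16 h; values are Hill-derived IC50s normalized between R1881 and DMSO wells.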
# [18] = measured here: cell count channel max response
# [19] = measured here: cell number channel AC50
# [20] = measured here: lipid (BODIPY) channel AC50
# [21] = measured here: lipid channel max response
# Tags describe the fitted curve by direction and shape.
smiles,measurement,setting,value
C=CCN1C[C@H](C)N([C@H](c2ccc(C(=O)N(CC)CC)cc2)c2cccc(OC)c2)C[C@H]1C,max response,[1]; [18],53.2%
same,AC50,[1]; [19],"12.6 µM [rising, full curve, poor fit]"
same,AC50,[1]; [20],"12.6 µM [rising, full curve, poor fit]"
same,max response,[1]; [21],72.7%
same,AC50,[2]; measured here: 460 nm blue channel,"25.1 µM [rising, partial curve, poor fit]"
same,AC50,[2]; measured here: 530 nm viability channel,"15.8 µM [rising, partial curve]"
CSc1nc(NC(C)C)nc(NC(C)C)n1,max response,[1]; [18],25.3%
same,AC50,[1]; [20],"22.4 µM [rising, partial curve]"
same,max response,[1]; [21],34.7%
same,max response,[3],7.18%
same,max response,[4],-7.84%
C(=C/c1ccccc1)/CN1CCN(CCOC(c2ccccc2)c2ccccc2)CC1,AC50,[5],"15.8 µM [rising, partial curve]"
same,max response,[1]; [18],46.5%
same,AC50,[1]; [19],"7.94 µM [rising, full curve, poor fit]"
same,AC50,[1]; [20],"5.62 µM [rising, full curve, poor fit]"
same,max response,[1]; [21],31.6%
C[C@@H](Cc1cccc(C(F)(F)F)c1)NCCCc1ccccc1,AC50,[5],"20 µM [rising, single point]"
same,max response,[1]; [18],70%
same,AC50,[1]; [19],"35.5 µM [rising, partial curve, poor fit]"
same,AC50,[1]; [20],"39.8 µM [rising, partial curve, poor fit]"
same,max response,[1]; [21],88%
CN1[C@@H]2CC[C@H]1CC(OC(c1ccc(F)cc1)c1ccc(F)cc1)C2 (some centres not stated),AC50,[5],"10 µM [rising, partial curve]"
same,max response,[1]; [18],19.1%
same,AC50,[1]; [19],"0.794 µM [rising, full curve, poor fit]"
same,AC50,[1]; [20],"0.708 µM [rising, full curve, poor fit]"
same,max response,[1]; [21],29.8%
CN[C@@H]1C[C@H](c2ccc(Cl)c(Cl)c2)c2ccccc21,AC50,[5],"25.1 µM [rising, single point]"
same,max response,[1]; [18],43%
same,AC50,[1]; [19],"6.31 µM [rising, full curve]"
same,AC50,[1]; [20],"6.31 µM [rising, full curve]"
same,max response,[1]; [21],47.2%
CN(CCc1ccc(Cl)c(Cl)c1)[C@H]1CCCC[C@H]1N1CCCC1,AC50,[5],"15.8 µM [rising, partial curve]"
same,max response,[1]; [18],28.7%
same,AC50,[1]; [20],"35.5 µM [rising, single point]"
same,max response,[1]; [21],35%
CC(CCc1ccccc1)NC(C)C(O)c1ccc(O)cc1 (configuration not stated),max response,[1]; [18],20.5%
same,AC50,[1]; [20],"39.8 µM [rising, single point]"
same,max response,[1]; [21],32.7%
same,AC50,[6],"7.08 µM [falling, partial curve, poor fit]"
Clc1ccc(C(c2ccc(Cl)cc2)C(Cl)(Cl)Cl)cc1,max response,[1]; [18],25.6%
same,AC50,[1]; [20],"6.31 µM [rising, full curve, poor fit]"
same,max response,[1]; [21],34.9%
same,AC50,[7],"50.1 µM [falling, single point]"
same,max response,[8],30%
same,max response,[3],-68.5% and 19.4%
same,max response,[4],-43.9% and -5.51%
CCCCOC(=O)c1ccccc1C(=O)OCCCC,max response,[1]; [18],28.2%
same,AC50,[1]; [20],"35.5 µM [rising, partial curve]"
same,max response,[1]; [21],39.6%
same,max response,[4],-10.3%
CN(N=O)c1cc(O)ccc1O,max response,[1]; [18],-32.5%
same,AC50,[1]; [19],"39.8 µM [falling, single point]"
same,max response,[1]; [21],-34%
same,AC50,[9],"37.9 µM [rising, partial curve]"
same,viability change,[10],11%
same,IC50,[11],"3.85 µM [falling, full curve]"
same,IC50,[12],"43.2 µM [falling, single point]"
same,IC50,[13],"38.5 µM [falling, single point]"
same,IC50,[14],"21.7 µM [falling, partial curve]"
COc1ccc(C(CN(C)C)C2(O)CCCCC2)cc1 (configuration not stated),max response,[1]; [18],13.1%
same,AC50,[1]; [20],"39.8 µM [rising, single point]"
same,max response,[1]; [21],30.9%
same,z-score,"[15]; TFE3-RCC UOK109 viability, measured here: UOK109 Z-AUC",0.176
same,z-score,"[15]; TFE3-RCC viability, measured here: UOK124 Z-AUC",0.918
same,z-score,"[15]; TFE3-RCC viability, measured here: UOK145 Z-AUC",0.0325
CN(C(=O)Cc1ccccc1)[C@H](CN1CCCC1)c1ccccc1,AC50,[5],"15.8 µM [rising, partial curve]"
C/C(O)=C(/C#N)C(=O)Nc1cc(Br)ccc1Br,AC50,[5],"20 µM [rising, single point]"
same,AC50,[1]; [19],"35.5 µM [rising, single point]"
COC(=O)C[C@](O)(CCCC(C)(C)O)C(=O)O[C@@H]1C(OC)=C[C@]23CCCN2CCc2cc4c(cc2[C@H]13)OCO4,AC50,[1]; [19],"0.562 µM [rising, full curve, poor fit]"
CCCn1c(=O)c2[nH]c(C3CCCC3)nc2n(CCCOC(=O)c2ccc(S(=O)(=O)F)cc2)c1=O,AC50,[16],"29.1 µM [falling, single point]"
CCCN(CCC)c1c([N+](=O)[O-])cc(C(F)(F)F)cc1[N+](=O)[O-],AC50,[17],"11.2 µM [falling, partial curve, poor fit]"
same,max response,[8],-15.6%
